{
  "source": "PubChem BioAssay AID588549",
  "about": "(Broad Institute, 2011)",
  "note": "Hit rate of the full screen: of about 360,000 compounds, about 780 (0.22%) were called active. Inconclusive means that the source gave no clear call. Such entries were picked first, then a sample of the others. Cut-off read from the data, not from the text of the source: active = inhibition above about 8.5% (passing the limit was not always enough); inconclusive = no clear call, values can overlap the other calls.",
  "data": [
    {"system": "Mycobacterium tuberculosis FadD28 fatty-acid-AMP ligase", "test": "inhibitors of FadD28 bisubstrate probe binding, primary screen, biochemical, fluorescence polarization, single point (AID 588549)", "conditions": "at 12.5 µM, active compounds read high", "values": [
      {"smiles": "Cc1ccc2c(c1)[C@H]1[C@H](CO2)[C@H](c2ccccc2)[C@]2(C)C(=O)Nc3ccc(Cl)cc3C(=O)N12", "inhibition": "inactive: 0.307%"},
      {"smiles": "CS(=O)(=O)Nc1ccccc1C(=O)OCC(=O)N1CCC(c2ccccc2)=N1", "inhibition": "inactive: -5.67%"},
      {"smiles": "O=C(O)c1ccccc1-c1ccc(/C=c2\\sc3nc4cc(Br)cnc4n3c2=O)o1", "inhibition": "active: 23.7%"},
      {"smiles": "CCC1=NN2C(=N)/C(=C\\c3cccn3-c3c(C)cccc3C)C(=O)N=C2S1", "inhibition": "inconclusive: 4.15%"},
      {"smiles": "CS(=O)(=O)N1CCc2cc(C(=O)N3CCN(c4cccc(Cl)c4)CC3)ccc21", "inhibition": "inactive: -4.1%"},
      {"smiles": "Cc1ccc(S(=O)(=O)NCC(=O)Nc2ccc3c(c2)OCCO3)cc1", "inhibition": "inconclusive: 3.83%"},
      {"smiles": "COc1cccc2c1C(=O)c1c(O)c3c(c(O)c1C2=O)CC(O)(C(C)=NO)CC3OC1CC(N)C(O)C(C)O1", "note": "(stereo not given)", "inhibition": "active: 63.3%"},
      {"smiles": "CC(=O)Nc1ccc(C=NNc2ccc(S(=O)(=O)Nc3ccccc3C(=O)O)cc2[N+](=O)[O-])cc1", "inhibition": "active: 27.5%"},
      {"smiles": "CC(=O)C1=CCC(c2ccc(Br)cc2)N(S(=O)(=O)c2ccc(C)cc2)C1", "note": "(stereo not given)", "inhibition": "inactive: -4.68%"},
      {"smiles": "Oc1c(Br)cc(/C=N/Nc2ccc(Cl)nn2)cc1Br", "inhibition": "inconclusive: 7.5%"},
      {"smiles": "CCCOc1ccc(C(=O)NNC(=S)NC(=O)c2cc(-c3ccc(Cl)cc3)nc3ccccc23)cc1", "inhibition": "inactive: -4.34%"},
      {"smiles": "Cc1ccc(NC(=O)CN2C(=O)S/C(=C\\c3cc(C)n(-c4cccc(C(=O)O)c4)c3C)C2=O)cc1", "inhibition": "active: 43.3%"},
      {"smiles": "O=C1NC(=S)SC1=Cc1cc(Br)ccc1O", "inhibition": "active: 11.6%"},
      {"smiles": "CN1OC[C@@H]2CN3C(=O)N(c4ccccc4)c4ccccc4[C@@H]3C[C@@H]21", "inhibition": "inactive: 1.21%"},
      {"smiles": "COc1ccc(NC(=O)CC2(CC(=O)O)CCCC2)cn1", "inhibition": "inactive: -1.87%"},
      {"smiles": "COc1cccc(NC(=O)Cn2c(=O)oc3cc(S(=O)(=O)N4CCCC4)ccc32)c1", "inhibition": "active: 24%"},
      {"smiles": "CC1CCCC(C)N1CCCNC(=O)c1ccc2nc(N3CCOCC3)sc2c1", "note": "(stereo not given)", "inhibition": "inconclusive: 9.52%"},
      {"smiles": "Cc1ncc(CO)c(/C=N/NC(=S)Nc2ccc(Cl)c(Cl)c2)c1O", "inhibition": "inconclusive: 7.94%"},
      {"smiles": "CCc1ccccc1OCC(=O)Nc1ccc(S(N)(=O)=O)cc1", "inhibition": "inconclusive: 4.92%"},
      {"smiles": "CSc1ccc(/C=N/NC(=O)c2cc(O)cc(O)c2)cc1", "inhibition": "inactive: -6.2%"},
      {"smiles": "COc1ccc2nc(N3CCCCC3)c(/C=C3\\SC(=S)NC3=O)cc2c1", "inhibition": "inconclusive: 8.4%"},
      {"smiles": "C/C(C/C(C)=C1/SC(=S)NC1=O)=C1\\SC(=S)NC1=O", "inhibition": "active: 19.9%"},
      {"smiles": "COc1cc(C(=O)Nc2c(C(=O)O)[nH]c3ccc(Br)cc23)cc(OC)c1OC", "inhibition": "inconclusive: 7.11%"},
      {"smiles": "Nc1ccc(N)c(C(=O)O)c1", "inhibition": "inconclusive: 9.91%"},
      {"smiles": "O=C1NCCN(C(=O)CCc2nnc(-c3ccsc3)o2)C1c1ccc(F)cc1", "note": "(stereo not given)", "inhibition": "inconclusive: 3.92%"},
      {"smiles": "COc1ccc(C(C)(O)c2nc(-c3ccncc3)cs2)cc1", "note": "(stereo not given)", "inhibition": "inactive: 0.491%"},
      {"smiles": "Cc1cc(-c2ccccc2)n(-c2cc(N/N=C/c3ccccc3O)ncn2)n1", "inhibition": "inactive: -1.54%"},
      {"smiles": "CC(C)C1Nc2c(O)cc(Cl)c([N+](=O)[O-])c2C2C=CCC21", "note": "(stereo not given)", "inhibition": "active: 24.9%"},
      {"smiles": "CC1=NNC(=O)/C1=C\\c1cn(-c2ccccc2)nc1-c1ccccc1", "inhibition": "inactive: -4.18%"},
      {"smiles": "O=[N+]([O-])c1cccc(/C=N/N2CCN(c3ccccn3)CC2)c1", "inhibition": "inactive: -2.76%"},
      {"smiles": "O=C1CC(c2cc(F)ccc2F)c2cc3c(cc2N1)CCC3", "note": "(stereo not given)", "inhibition": "inconclusive: 4.17%"},
      {"smiles": "Cn1c(-c2cccc(OCc3ccccc3)c2)nc2c1c(=O)[nH]c(=O)n2Cc1ccccc1", "inhibition": "inactive: -2.53%"},
      {"smiles": "O=C(CSc1ccc(Br)c2cccc(Cl)c12)Nc1ccc(S(=O)(=O)Nc2nccs2)cc1", "inhibition": "inconclusive: 9.55%"},
      {"smiles": "CCOC(=O)C1=C(C)NC2=C(C(=O)c3ccccc32)C1c1ccc(O)cc1", "note": "(stereo not given)", "inhibition": "inconclusive: 5.41%"},
      {"smiles": "COC(=O)c1[nH]c2ccccc2c1NC(=O)CN1CCCCCC1", "inhibition": "inactive: -2.03%"},
      {"smiles": "COc1ccc(C)cc1NC(=O)CSc1nnc(-c2ccc(Br)cc2)o1", "inhibition": "inconclusive: 12.3%"},
      {"smiles": "COC(=O)COc1ccc(Cl)cc1C1Nc2ccccc2C(=O)N1c1ccc(OC)cc1", "note": "(stereo not given)", "inhibition": "active: 23.4%"},
      {"smiles": "Cc1nc2ccccc2n1-c1ccccc1", "inhibition": "inconclusive: 10.4%"},
      {"smiles": "CCn1ncc(Br)c1C(=O)Nc1ccc(OC(F)(F)F)cc1", "inhibition": "inconclusive: 11.9%"},
      {"smiles": "COc1cccc(-c2cnc(C(O)c3c(C)cc(C)cc3C)[nH]2)c1", "note": "(stereo not given)", "inhibition": "inactive: -1.8%"},
      {"smiles": "O=C(N/N=C/c1c(O)n(Cc2ccccc2)c(=O)c2ccccc12)c1cccnc1", "inhibition": "active: 10.6%"},
      {"smiles": "O=C(CCN1C(=O)c2ccccc2C1=O)N1CCN(C2c3ccccc3-c3ccccc32)CC1", "inhibition": "inactive: -3.93%"},
      {"smiles": "Oc1ccc(/C=N/n2c(C3CCCCC3)n[nH]c2=S)c(O)c1", "inhibition": "inconclusive: 7.08%"},
      {"smiles": "Cc1ccc(-n2cccc2/C=C2/NC(=O)N(CC(=O)Nc3cccc(C)c3)C2=O)cc1", "inhibition": "inconclusive: 7.98%"},
      {"smiles": "COc1cccc2c1C(=O)c1c(O)c3c(c(O)c1C2=O)C[C@@](O)(C(=O)CO)C[C@@H]3O[C@H]1C[C@H](N)[C@@H](O)[C@H](C)O1", "inhibition": "active: 64.4%"},
      {"smiles": "COc1ccc(CNC(=O)COc2ccc(OC)cc2)cc1", "inhibition": "active: 21.9%"},
      {"smiles": "O=C(c1cc2cc(Br)ccc2oc1=O)N1CCCC1", "inhibition": "inconclusive: 6.81%"},
      {"smiles": "CC(C)CCOc1ccc(C(=O)N2CCCC2C(=O)O)cc1", "note": "(stereo not given)", "inhibition": "inconclusive: 50.6%"},
      {"smiles": "COc1ccc(C(=O)/C(C#N)=N/Nc2cccc([N+](=O)[O-])c2)cc1", "inhibition": "inconclusive: 6.08%"},
      {"smiles": "COc1ccccc1C/C(N)=N/OC(=O)c1cccs1", "inhibition": "inconclusive: 17.3%"},
      {"smiles": "CCc1nc2ccccc2c(C(=O)OCC(=O)Nc2ccc(S(=O)(=O)N3CCOCC3)cc2)c1C", "inhibition": "inactive: -0.588%"},
      {"smiles": "Cn1ccc(C(=O)NC(=S)Nc2ccc([N+](=O)[O-])cc2O)n1", "inhibition": "inconclusive: 8.35%"},
      {"smiles": "Cc1cc2ncc(-c3ccccc3)nc2cc1C", "inhibition": "inactive: 0.401%"},
      {"smiles": "O=C(O)c1cccc(N/N=C/c2ccc(OC(F)(F)F)cc2)c1", "inhibition": "inconclusive: 7.08%"},
      {"smiles": "CCN1CCN(CCNC(=O)c2ccc(/C=C3/Sc4ccccc4N(Cc4ccccc4C)C3=O)cc2)CC1", "inhibition": "inactive: -10.1%"}
    ]}
  ]
}
